# This is one part of the list.
# B1: Sebin1 (Coprinopsis cinerea), A8PEE3 (protein)
# chain: MTSPFYAHIHNVQDDNTWRFTLIFANRATADEWWRAISEAPANTSIAKSITRVTPQYYTHDVNIWNIWNFFADGNIKSISERFRGRLFIVLENDRGGRGITVIPPVPIVDHVSGNWFYIRSKTAPHLFWYYDERRSSIYASKEKRTRFKISIRNPSSQTPKNAIMINTDDVTIHIKENLYVGVDNNLGHIIPTRAYRTFKFGELESGAIAGFDVVENIEERCSSTFDGASLSISGPDSSSPGEPWELV
# Assays:
# Experiment in all cases: glycan array binding signal (z-score within array); higher = stronger binding
# Conditions in all cases: glycan notation: IUPAC condensed, linker removed
# [1] = biological target: Fuc(a1-2)Gal6S(b1-3)GlcNAc
# Summary of the method: (§1)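 The binding signal is a Z-score computed within each array and averaged over linkers. Arrays of the same protein sequence at different concentrations or buffers were also averaged together. Data originate from 3228 arrays in the Consortium for Functional Glycomics database, kept only where the protein sequence was available.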
# [2] = biological target: Fuc(a1-2)Gal6S(b1-3)GlcNAc6S
# Summary of the method: as §1
# [3] = biological target: Fuc(a1-2)Gal6S(b1-4)Glc
# Summary of the method: as §1
# [4] = biological target: Fuc(a1-2)Gal6S(b1-4)Glc6S
# Summary of the method: as §1
# [5] = biological target: Fuc(a1-2)[Gal(a1-3)]Gal
# Summary of the method: as §1
# [6] = biological target: Fuc(a1-2)[Gal(a1-3)]Gal(b1-3)GalNAc
# Summary of the method: as §1
# [7] = biological target: Fuc(a1-2)[Gal(a1-3)]Gal(b1-3)GalNAc(b1-3)Gal(a1-4)Gal(b1-4)Glc
# Summary of the method: as §1
# [8] = biological target: Fuc(a1-2)[Gal(a1-3)]Gal(b1-3)GlcNAc
# Summary of the method: as §1
# [9] = biological target: Fuc(a1-2)[Gal(a1-3)]Gal(b1-3)GlcNAc(b1-2)Man(a1-3)[Fuc(a1-2)[Gal(a1-3)]Gal(b1-3)GlcNAc(b1-2)Man(a1-6)]Man(b1-4)GlcNAc(b1-4)GlcNAc
# Summary of the method: as §1
# [10] = biological target: Fuc(a1-2)[Gal(a1-3)]Gal(b1-3)GlcNAc(b1-2)Man(a1-3)[Fuc(a1-2)[Gal(a1-3)]Gal(b1-3)GlcNAc(b1-2)Man(a1-6)]Man(b1-4)GlcNAc(b1-4)[Fuc(a1-6)]GlcNAc
# Summary of the method: as §1
# [11] = biological target: Fuc(a1-2)[Gal(a1-3)]Gal(b1-3)GlcNAc(b1-3)GalNAc
# Summary of the method: as §1
# [12] = biological target: Fuc(a1-2)[Gal(a1-3)]Gal(b1-3)GlcNAc(b1-6)GalNAc
# Summary of the method: as §1
# [13] = biological target: Fuc(a1-2)[Gal(a1-3)]Gal(b1-4)Glc
# Summary of the method: as §1
# [14] = biological target: Fuc(a1-2)[Gal(a1-3)]Gal(b1-4)GlcNAc
# Summary of the method: as §1
# [15] = biological target: Fuc(a1-2)[Gal(a1-3)]Gal(b1-4)GlcNAc(b1-2)Man
# Summary of the method: as §1
# [16] = biological target: Fuc(a1-2)[Gal(a1-3)]Gal(b1-4)GlcNAc(b1-2)Man(a1-3)[Fuc(a1-2)[Gal(a1-3)]Gal(b1-4)GlcNAc(b1-2)Man(a1-6)]Man(b1-4)GlcNAc(b1-4)GlcNAc
# Summary of the method: as §1
# [17] = biological target: Fuc(a1-2)[Gal(a1-3)]Gal(b1-4)GlcNAc(b1-2)Man(a1-3)[Fuc(a1-2)[Gal(a1-3)]Gal(b1-4)GlcNAc(b1-2)Man(a1-6)]Man(b1-4)GlcNAc(b1-4)[Fuc(a1-6)]GlcNAc
# Summary of the method: as §1
# [18] = biological target: Fuc(a1-2)[Gal(a1-3)]Gal(b1-4)GlcNAc(b1-3)GalNAc
# Summary of the method: as §1
# [19] = biological target: Fuc(a1-2)[Gal(a1-3)]Gal(b1-4)GlcNAc(b1-3)[Fuc(a1-2)[Gal(a1-3)]Gal(b1-4)GlcNAc(b1-6)]GalNAc
# Summary of the method: as §1
# [20] = biological target: Fuc(a1-2)[Gal(a1-3)]Gal(b1-4)GlcNAc(b1-6)GalNAc
# Summary of the method: as §1
# [21] = biological target: Fuc(a1-2)[Gal(a1-3)]Gal(b1-4)[Fuc(a1-3)]Glc
# Summary of the method: as §1
# [22] = biological target: Fuc(a1-2)[Gal(a1-3)]Gal(b1-4)[Fuc(a1-3)]GlcNAc
# Summary of the method: as §1
# [23] = biological target: Fuc(a1-2)[Gal(a1-3)]Gal(b1-4)[Fuc(a1-3)]GlcNAc(b1-3)GalNAc
# Summary of the method: as §1
# [24] = biological target: Fuc(a1-2)[Gal(a1-4)]Gal(b1-4)GlcNAc
# Summary of the method: as §1
# [25] = biological target: Fuc(a1-2)[GalNAc(a1-3)]Gal
# Summary of the method: as §1
# [26] = biological target: Fuc(a1-2)[GalNAc(a1-3)]Gal(b1-3)GalNAc(a1-3)[Fuc(a1-2)]Gal(b1-4)GlcNAc
# Summary of the method: as §1
# [27] = biological target: Fuc(a1-2)[GalNAc(a1-3)]Gal(b1-3)GalNAc(b1-3)Gal(a1-4)Gal(b1-4)Glc
# Summary of the method: as §1
# [28] = biological target: Fuc(a1-2)[GalNAc(a1-3)]Gal(b1-3)GlcNAc
# Summary of the method: as §1
# [29] = biological target: Fuc(a1-2)[GalNAc(a1-3)]Gal(b1-3)GlcNAc(b1-2)Man(a1-3)[Fuc(a1-2)[GalNAc(a1-3)]Gal(b1-3)GlcNAc(b1-2)Man(a1-6)]Man(b1-4)GlcNAc(b1-4)GlcNAc
# Summary of the method: as §1
# [30] = biological target: Fuc(a1-2)[GalNAc(a1-3)]Gal(b1-3)GlcNAc(b1-2)Man(a1-3)[Fuc(a1-2)[GalNAc(a1-3)]Gal(b1-3)GlcNAc(b1-2)Man(a1-6)]Man(b1-4)GlcNAc(b1-4)[Fuc(a1-6)]GlcNAc
# Summary of the method: as §1
# [31] = biological target: Fuc(a1-2)[GalNAc(a1-3)]Gal(b1-3)GlcNAc(b1-3)GalNAc
# Summary of the method: as §1
# [32] = biological target: Fuc(a1-2)[GalNAc(a1-3)]Gal(b1-3)GlcNAc(b1-6)GalNAc
# Summary of the method: as §1
# [33] = biological target: Fuc(a1-2)[GalNAc(a1-3)]Gal(b1-4)Glc
# Summary of the method: as §1
# [34] = biological target: Fuc(a1-2)[GalNAc(a1-3)]Gal(b1-4)GlcNAc
# Summary of the method: as §1
# [35] = biological target: Fuc(a1-2)[GalNAc(a1-3)]Gal(b1-4)GlcNAc(b1-2)Man
# Summary of the method: as §1
# [36] = biological target: Fuc(a1-2)[GalNAc(a1-3)]Gal(b1-4)GlcNAc(b1-2)Man(a1-3)[Fuc(a1-2)[GalNAc(a1-3)]Gal(b1-4)GlcNAc(b1-2)Man(a1-6)]Man(b1-4)GlcNAc(b1-4)GlcNAc
# Summary of the method: as §1
# [37] = biological target: Fuc(a1-2)[GalNAc(a1-3)]Gal(b1-4)GlcNAc(b1-2)Man(a1-3)[Fuc(a1-2)[GalNAc(a1-3)]Gal(b1-4)GlcNAc(b1-2)Man(a1-6)]Man(b1-4)GlcNAc(b1-4)[Fuc(a1-6)]GlcNAc
# Summary of the method: as §1
# [38] = biological target: Fuc(a1-2)[GalNAc(a1-3)]Gal(b1-4)GlcNAc(b1-3)Gal(b1-4)GlcNAc
# Summary of the method: as §1
# [39] = biological target: Fuc(a1-2)[GalNAc(a1-3)]Gal(b1-4)GlcNAc(b1-3)Gal(b1-4)GlcNAc(b1-3)Gal(b1-4)GlcNAc
# Summary of the method: as §1
# [40] = biological target: Fuc(a1-2)[GalNAc(a1-3)]Gal(b1-4)GlcNAc(b1-3)GalNAc
# Summary of the method: as §1
# [41] = biological target: Fuc(a1-2)[GalNAc(a1-3)]Gal(b1-4)GlcNAc(b1-3)[Fuc(a1-2)[GalNAc(a1-3)]Gal(b1-4)GlcNAc(b1-6)]GalNAc
# Summary of the method: as §1
# [42] = biological target: Fuc(a1-2)[GalNAc(a1-3)]Gal(b1-4)GlcNAc(b1-6)GalNAc
# Summary of the method: as §1
# [43] = biological target: Fuc(a1-2)[GalNAc(a1-3)]Gal(b1-4)[Fuc(a1-3)]GlcNAc
# Summary of the method: as §1
# [44] = biological target: Fuc(a1-2)[GalNAc(a1-3)]Gal(b1-4)[Fuc(a1-3)]GlcNAc(b1-3)GalNAc
# Summary of the method: as §1
# [45] = biological target: Fuc(a1-2)[GalNAc(a1-4)]Gal(b1-4)GlcNAc
# Summary of the method: as §1
binder,measurement,setting,value
B1,glycan array binding signal (z-score),[1],-0.238
same,glycan array binding signal (z-score),[2],0.963
same,glycan array binding signal (z-score),[3],-0.556
same,glycan array binding signal (z-score),[4],0.002
same,glycan array binding signal (z-score),[5],-0.114
same,glycan array binding signal (z-score),[6],-0.147
same,glycan array binding signal (z-score),[7],-0.064
same,glycan array binding signal (z-score),[8],-0.29
same,glycan array binding signal (z-score),[9],-0.262
same,glycan array binding signal (z-score),[10],2.8
same,glycan array binding signal (z-score),[11],0.3
same,glycan array binding signal (z-score),[12],-0.225
same,glycan array binding signal (z-score),[13],-0.318
same,glycan array binding signal (z-score),[14],-0.369
same,glycan array binding signal (z-score),[15],-0.672
same,glycan array binding signal (z-score),[16],-0.234
same,glycan array binding signal (z-score),[17],0.423
same,glycan array binding signal (z-score),[18],-0.229
same,glycan array binding signal (z-score),[19],3.52
same,glycan array binding signal (z-score),[20],-0.194
same,glycan array binding signal (z-score),[21],-0.683
same,glycan array binding signal (z-score),[22],-0.054
same,glycan array binding signal (z-score),[23],0.859
same,glycan array binding signal (z-score),[24],-0.539
same,glycan array binding signal (z-score),[25],-0.458
same,glycan array binding signal (z-score),[26],-0.485
same,glycan array binding signal (z-score),[27],-0.203
same,glycan array binding signal (z-score),[28],-0.296
same,glycan array binding signal (z-score),[29],-0.084
same,glycan array binding signal (z-score),[30],0.753
same,glycan array binding signal (z-score),[31],-0.028
same,glycan array binding signal (z-score),[32],-0.225
same,glycan array binding signal (z-score),[33],-0.173
same,glycan array binding signal (z-score),[34],-0.218
same,glycan array binding signal (z-score),[35],0.354
same,glycan array binding signal (z-score),[36],-0.839
same,glycan array binding signal (z-score),[37],0.337
same,glycan array binding signal (z-score),[38],-0.149
same,glycan array binding signal (z-score),[39],-0.669
same,glycan array binding signal (z-score),[40],-0.216
same,glycan array binding signal (z-score),[41],1.28
same,glycan array binding signal (z-score),[42],0.553
same,glycan array binding signal (z-score),[43],0.3
same,glycan array binding signal (z-score),[44],1.34
same,glycan array binding signal (z-score),[45],-0.336
